PubChem BioAssay AID2202238 (Ras Initiative Chemistry Research Team, Frederick National …, 2025)
The whole screen tested about 2,200 compounds, of which fewer than 10 were called active. Some of the results follow. Where no call is shown, the source marks the result inconclusive.

Each compound was assayed against GTPase KRas (Homo sapiens) (UniProt P01116) (assay: Fragment capture on engineered cysteines, share of protein labelled (AID 2202238)). Conditions: KRAS G12D cysteine mutants, disulfide tethering, MALDI-TOF labeling; stronger effect = higher value; H27C mutant labeling; fragment at 500 µM.
UniProt P01116, sequence (P01116 whole entry, looked up, the tested form may be a part): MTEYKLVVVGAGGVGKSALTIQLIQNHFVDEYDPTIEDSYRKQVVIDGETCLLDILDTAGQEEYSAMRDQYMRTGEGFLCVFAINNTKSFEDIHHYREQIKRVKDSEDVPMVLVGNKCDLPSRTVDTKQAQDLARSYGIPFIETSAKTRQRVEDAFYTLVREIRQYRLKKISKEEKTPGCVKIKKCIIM
Parameters: protein at 5 µM with 500 µM competing thiol for 1.5 h

Structure (SMILES)	percent labeling
Cc1cc(NC(=O)CCS)nn1Cn1cc(Cl)cn1	61.8%
O=C(NCCS)c1ccc(C(F)(F)F)cc1N1CCCC1	12.5%
O=C(CCS)Nc1cccc(-c2noc(C(F)F)n2)c1	31.3%
CC1CCc2ccccc2N1CCC(=O)NCCS (stereo not drawn)	28.5%
Cc1nc2cc(C(=O)NCCS)ccc2c(=O)[nH]1	43%
CN1C(=O)CCc2ccc(C(=O)NCCS)cc21	51.5%
CN(C)CCN(Cc1cccs1)C(=O)CCS	54.2%
CC1CCN(c2ccc(C(=O)NCCS)cc2)C1 (stereo not drawn)	14.5%
O=C(NCCS)[C@@H]1CCCN1C(=O)Nc1ccc2c(c1)OCCO2	29.3%
CCNC(=O)COc1cccc(CNC(=O)CCS)c1	38.5%
O=C(NCCS)C1CCN(Cc2coc(-c3ccccc3)n2)CC1	41.5%
COc1ccc2cccc(CC(=O)NCCS)c2c1	30.6%
O=C(CCS)N1Cc2cccn2C2(CCOCC2)C1	0%
O=C(NCCS)C1CCN(C(=O)c2cccc3ccccc23)CC1	47.6%
CN1C(=O)CO[C@@H](C(=O)NCCS)[C@H]1c1cnn(C)c1	31.2%
O=C(CCS)Nc1cc2ccc(Br)cn2n1	37.6%
O=C(CCS)Nc1ccc(Cl)cc1-c1ccccc1	31%
Cn1nc(-c2ccco2)cc1NC(=O)CCS	34.3%
O=C(CCS)N1CC(c2n[nH]c3c2COCC3)C1	38%

Structure (SMILES)	percent labeling
Cc1nc(-c2cccc(C(=O)NCCS)c2)no1	34.9%
Cc1cc(C(=O)NCCS)c2c(C)nn(-c3ccccc3)c2n1	20.9%
COc1cc(OC)c2cc(C(=O)NCCS)[nH]c2c1	34.4%
CCOc1ccc(NC(=O)c2ccc(NC(=O)CCS)cc2)cc1	9.5%
O=C(NCCS)c1cccc(-n2nccc2C(F)(F)F)c1	35.2%
Cc1cc(Cl)cc2cc(C(=O)NCCS)[nH]c12	25.7%
COc1cccc(COCC(=O)NCCS)c1	32.3%
O=C(CCS)Nc1ccc2c(c1)C(F)(F)C(=O)N2	35.4%
O=C(CCS)N1CC(O)(c2cccnc2F)C1	35.3%
O=C(NCCS)c1cccc(Oc2ccncc2)c1Cl	54.7%
Cc1n[nH]c(C)c1C1COCCN1C(=O)CCS (stereo not drawn)	43.4%
CC(C)C(=O)Nc1ccc(C(=O)NCCS)cc1	27.1%
Cn1ncc(NC(=O)CCS)c1-c1ccc(F)cc1F	42.2%
CCNC(=O)Cn1cc(-c2cccc(NC(=O)CCS)c2)cn1	43%
CCC(C(=O)NCCS)n1nnc(-c2ccsc2)n1 (stereo not drawn)	27.1%
CN(Cc1nc2ccsc2c(=O)[nH]1)C(=O)CCS	34.6%
O=C(NCCS)c1cncc(-c2ccc(F)cc2)c1	37.1%
CC(C)(COCc1ccccc1)C(=O)NCCS	26.1%
CC(C)Cn1ncc2cc(C(=O)NCCS)cnc21	31.8%
